Data published in ChEMBL document CHEMBL4888484, “Replenishing the malaria drug discovery pipeline: Screening and hit evaluation of the MMV Hit Generation Library 1 (HGL1) against asexual blood stage Plasmodium falciparum ,using a nano luciferase reporter read-out” (2022).
About 540 (0.36%) of roughly 150,000 compounds showed an effect of 50% or more. The list shows a part of the results.

These compounds were tested on Plasmodium falciparum (assay: Primary screen in NF54 nanoGlo assay, in single point, at 2uM, 72h; a lower Z score goes with more inhibition). Settings: timepoint 72 hour.
Type: functional, Erythrocyte

Row | Structure (SMILES) | % Inhibition | Z score
1 | Cc1nc(CN[C@H]2CC(C)(C)OC2(C)C)oc1C | -6% | 0.88
2 | Cn1cc(C(=O)Nc2nc3cc4c(cc3s2)OCCO4)cn1 | 2% | -0.24
3 | Cc1ccc(NC(=O)[C@H](C)C(=O)O)c(C)c1O | -9% | 1.37
4 | COc1ccc(NC(=O)c2ccc(NC(=O)CC3(CC(=O)O)CCCCC3)cc2)cc1 | 16% | -1.86
5 | CN(C)S(=O)(=O)c1cc(C(=O)N2CCCO2)co1 | 33% | -0.78
6 | Cn1c(=O)c2ccccc2n(CC(=O)N2CCCc3ccccc32)c1=O | 0% | -0.07
7 | CC[C@@H](Cn1ccnc1)NC(=O)c1c(C)oc2c1C(=O)CCC2 | 5% | -0.76
8 | CC(=O)N1Cc2ccccc2C[C@H]1C(=O)N1CCC(CC(=O)N(C)C)CC1 | 3% | -0.65
9 | Cc1cccc2c1c(-c1cccc(C(=O)N[C@H]3CCN(C)C3=O)c1)nn2C | -14% | 2.66
10 | CC(C)(C)c1ccc(Cn2c(C(=O)Nc3ccc(C(F)(F)F)cc3)cc3cc(NC(=O)C4CCC4)ccc32)cc1 | -10% | 1.1
11 | C=C(C)C[C@H](C)C(=O)Nc1nccc(C)n1 | -1% | 0.19
12 | CCc1nn(C)cc1NC(=O)NCC(=O)NCC1CC1 | -5% | 0.52
13 | O=C(NC1(C(F)F)CC1)c1ccccc1 | -7% | 0.78
14 | O=C(NCCC1=CCCCC1)c1c[nH]c2ncccc12 | -13% | 1.3
15 | CCN1CC(CN(C)C(=O)C2CCC(=O)N2)Oc2ccccc21 (stereo unspecified) | -1% | 0.21
16 | CCCc1nc(-c2c(C)cc(C)nc2NC(=O)c2cc(C)ccc2C)no1 | -4% | 0.72
17 | COCCCn1ccc(Nc2ncc(C#N)cc2Cl)n1 | 4% | -0.52
18 | COC1(c2ccnn2C)CN(c2c(C)c(C)nc3ncnn23)C1 | -1% | 0.2
19 | O[C@H]1CC[C@@H](N[C@H]2CCc3c(Br)cccc32)CC1 | 6% | -0.65
20 | CCc1n[nH]c2c1CN(Cc1noc([C@@H]3CCCO3)n1)CC2 | 20% | -2.68
21 | CC(C(=O)N1CCCCC1C(=O)O)n1cncn1 (stereo unspecified) | -16% | 1.65
22 | C[C@@H](c1ccon1)N(C)C(=O)c1coc(COc2ccccc2)n1 | -2% | 0.3

Row | Structure (SMILES) | % Inhibition | Z score
23 | CC[C@H](C)c1nc(NC2CCC(NC(=O)c3ccc(Cl)cc3)CC2)c2cnn(-c3ccccc3Cl)c2n1 (stereo partly specified) | -12% | 1.27
24 | CCOC(=O)c1sc(NC(=N)N)nc1C | -7% | 0.68
25 | Cc1nn(C)cc1NC(=O)N[C@H]1CCCC[C@@H]1O | 34% | -4.34
26 | O=C(CCc1ccncc1)NC1CCS(=O)(=O)CC1 | -1% | 0.09
27 | CC(C)Cc1cc(N2Cc3c[nH]nc3[C@@H](C)C2)ncn1 | -3% | 0.32
28 | Cc1cc(C[C@H](C)n2ccnc2-c2ccc(Cl)s2)[nH]n1 | -14% | 1.78
29 | CC(C)OC1CCC(NC(=O)C2(C#N)CCCCC2)CC1 (stereo unspecified) | 5% | -0.54
30 | Clc1c(CN[C@H]2CCc3ccccc32)sc2ccccc12 | -12% | 1.35
31 | CN(C)c1ccc(NC(=O)[C@H]2C[C@@H]2OC(C)(C)C)cn1 | 0% | 0.06
32 | COC(=O)c1nc([C@@H]2CCCN2C(=O)c2ccnnc2)sc1C | 1% | -0.19
33 | CCCC[C@H]1C(=O)N(C)CCN1C(=O)c1cnc(O)cn1 | -10% | 1.86
34 | Cc1cc2c(cc1C)CN(c1cccc(C(=O)NCC[C@H]3CCOC3)c1)C2 | 4% | -0.73
35 | Cc1cccc2[nH]c(COCC(=O)NCCc3cccnc3)nc12 | -8% | 0.9
36 | CC(=O)Nc1ccc(N2C(=O)CN(C(C)C)C2=O)c(C(F)(F)F)c1 | 7% | -1.13
37 | CC[C@H](C)NCCOc1ccc(F)cc1 | -14% | 1.92
38 | Cc1noc(CNC(=O)c2ccc3[nH]c(=O)[nH]c3c2)n1 | -7% | 1.3
39 | COc1ccc(Cl)cc1N1C(=O)C[C@H](N2CCN(Cc3ccc(Cl)s3)CC2)C1=O | -12% | 1
40 | CCc1nc(C)c(N2C(=O)CN(CC)C2=O)s1 | 11% | -1.13
41 | O=C(Nc1ccccc1F)C(=Cc1cc(-c2cccnc2)[nH]n1)C(=O)Nc1ccccc1F | -8% | 0.97
42 | O=C(Cc1cccc2ccccc12)N1CCO[C@]2(CNCCOC2)C1 | 1% | -0.19
43 | O=C(Nc1cnc(-n2cccn2)nc1)C(c1ccccc1)c1ccccc1 | 0% | 0.01
